This passage reports binding results from paper PMC2276093.

Sequences of proteins named here, by UniProt entry; tags and fusion partners are left off. Residues count along the entry.
UniProt P09055, residues 21-798: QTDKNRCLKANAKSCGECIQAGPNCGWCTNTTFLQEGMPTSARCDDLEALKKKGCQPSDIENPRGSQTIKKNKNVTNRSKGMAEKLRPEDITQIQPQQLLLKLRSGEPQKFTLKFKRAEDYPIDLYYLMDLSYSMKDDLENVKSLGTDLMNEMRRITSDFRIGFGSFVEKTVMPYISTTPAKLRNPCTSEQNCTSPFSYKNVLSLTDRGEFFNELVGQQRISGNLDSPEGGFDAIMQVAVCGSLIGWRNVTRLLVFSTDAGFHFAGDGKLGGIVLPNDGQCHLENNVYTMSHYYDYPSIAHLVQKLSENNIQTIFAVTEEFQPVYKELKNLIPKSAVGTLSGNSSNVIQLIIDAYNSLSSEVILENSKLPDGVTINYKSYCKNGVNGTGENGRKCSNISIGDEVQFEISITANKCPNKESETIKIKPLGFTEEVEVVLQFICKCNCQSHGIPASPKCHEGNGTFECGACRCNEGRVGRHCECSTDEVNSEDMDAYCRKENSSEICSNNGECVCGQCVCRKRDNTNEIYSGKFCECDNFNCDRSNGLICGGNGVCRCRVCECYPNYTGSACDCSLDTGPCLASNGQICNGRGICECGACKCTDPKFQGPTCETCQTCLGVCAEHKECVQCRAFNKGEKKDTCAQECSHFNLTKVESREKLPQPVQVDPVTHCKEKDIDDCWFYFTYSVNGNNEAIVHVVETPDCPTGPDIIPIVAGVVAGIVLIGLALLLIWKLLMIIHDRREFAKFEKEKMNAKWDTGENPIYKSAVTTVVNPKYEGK

For assay [1], the target named is T1, integrin a4 subunit (uncleaved, a4 150) (mouse (endogenous in TK1 and 38B9)) (UniProt Q00651).
T1 sequence (chain, surface radioiodinated (lactoperoxidase method)): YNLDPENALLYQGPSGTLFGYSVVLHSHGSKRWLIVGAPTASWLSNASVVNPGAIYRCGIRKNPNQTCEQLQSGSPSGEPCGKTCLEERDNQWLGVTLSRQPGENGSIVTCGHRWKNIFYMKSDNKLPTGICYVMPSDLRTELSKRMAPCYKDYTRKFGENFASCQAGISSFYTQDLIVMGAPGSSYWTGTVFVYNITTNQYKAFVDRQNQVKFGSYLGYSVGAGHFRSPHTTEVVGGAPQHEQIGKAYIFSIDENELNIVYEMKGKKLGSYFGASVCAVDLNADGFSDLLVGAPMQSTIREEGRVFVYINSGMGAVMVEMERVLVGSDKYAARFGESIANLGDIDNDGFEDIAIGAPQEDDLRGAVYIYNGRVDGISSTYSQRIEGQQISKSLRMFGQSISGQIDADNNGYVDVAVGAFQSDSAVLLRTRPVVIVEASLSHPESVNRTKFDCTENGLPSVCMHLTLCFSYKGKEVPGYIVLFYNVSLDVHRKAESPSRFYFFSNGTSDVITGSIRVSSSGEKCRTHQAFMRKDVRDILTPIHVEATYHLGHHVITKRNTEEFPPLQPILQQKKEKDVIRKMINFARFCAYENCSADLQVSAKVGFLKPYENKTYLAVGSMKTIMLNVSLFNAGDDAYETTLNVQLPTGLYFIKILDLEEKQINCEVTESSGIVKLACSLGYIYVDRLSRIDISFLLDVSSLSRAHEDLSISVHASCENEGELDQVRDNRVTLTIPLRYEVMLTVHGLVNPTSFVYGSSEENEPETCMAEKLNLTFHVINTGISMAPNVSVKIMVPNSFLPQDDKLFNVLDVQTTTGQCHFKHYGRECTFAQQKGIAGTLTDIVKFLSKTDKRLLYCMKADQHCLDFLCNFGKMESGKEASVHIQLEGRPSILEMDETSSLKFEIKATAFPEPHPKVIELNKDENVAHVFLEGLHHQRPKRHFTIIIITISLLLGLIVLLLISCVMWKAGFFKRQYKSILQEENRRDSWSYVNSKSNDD
Put plainly: co-IP; surface-iodinated 38B9 cells, 1% NP-40 lysis buffer; precleared, undepleted lysate precipitated with SG31- or PS/2-coupled Affi-gel 10 beads; SDS-PAGE (7.5%) reducing, autoradiography; bands named by size.

Assay [2] deals with T1, integrin a4 subunit (uncleaved, a4 150) (mouse (endogenous in TK1 and 38B9)). Put plainly: condition: only cations depleted by 20 mM EDTA and EGTA each; co-IP; as a1 but lysis buffer depleted of cations by 20 mM EDTA and EGTA each.
For assay [3] the target is unchanged. Description: co-IP; surface-iodinated TK1 cells, 1% NP-40 lysis buffer supplemented with 5 mM CaCl2, MgCl2 and MnCl2 each; precleared lysate precipitated with SG31-, PS/2- (anti-a4) or M293- (anti-b7) coupled Affi-gel 10 beads; SDS-PAGE non-reducing, autoradiography; bands named by size.
Assay [4] deals with T2, integrin b7 subunit (mouse (endogenous in TK1)) (UniProt P26011).
T2 sequence (chain, surface radioiodinated (lactoperoxidase method)): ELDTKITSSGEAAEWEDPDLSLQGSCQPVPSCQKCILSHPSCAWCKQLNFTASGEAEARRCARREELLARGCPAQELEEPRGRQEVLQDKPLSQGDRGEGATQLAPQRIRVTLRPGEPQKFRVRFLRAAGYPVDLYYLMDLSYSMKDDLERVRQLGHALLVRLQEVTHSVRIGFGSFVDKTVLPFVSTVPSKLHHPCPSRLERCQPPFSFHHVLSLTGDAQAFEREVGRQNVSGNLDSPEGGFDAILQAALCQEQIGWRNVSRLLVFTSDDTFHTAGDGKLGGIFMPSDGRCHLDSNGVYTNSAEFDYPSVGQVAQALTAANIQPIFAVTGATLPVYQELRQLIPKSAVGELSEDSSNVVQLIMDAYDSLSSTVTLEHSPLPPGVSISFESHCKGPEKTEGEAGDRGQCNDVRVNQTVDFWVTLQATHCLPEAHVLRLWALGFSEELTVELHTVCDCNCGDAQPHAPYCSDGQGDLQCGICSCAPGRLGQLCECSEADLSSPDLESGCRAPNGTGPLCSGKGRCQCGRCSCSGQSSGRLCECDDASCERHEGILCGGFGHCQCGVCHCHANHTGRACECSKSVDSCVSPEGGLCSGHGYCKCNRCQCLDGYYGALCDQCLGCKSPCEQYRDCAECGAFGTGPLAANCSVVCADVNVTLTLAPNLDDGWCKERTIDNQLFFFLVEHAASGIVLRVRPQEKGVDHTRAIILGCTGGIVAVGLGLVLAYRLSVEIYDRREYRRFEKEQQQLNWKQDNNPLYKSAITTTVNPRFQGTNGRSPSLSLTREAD
Put plainly: condition: only cations depleted by 20 mM EDTA and EGTA each; co-IP; as a1 but lysis buffer depleted of cations by 20 mM EDTA and EGTA each.

For assay [5], the target named is T2, integrin b7 subunit (mouse (endogenous in TK1)). Put plainly: co-IP; surface-iodinated TK1 cells, 1% NP-40 lysis buffer supplemented with 5 mM CaCl2, MgCl2 and MnCl2 each; precleared lysate precipitated with SG31-, PS/2- (anti-a4) or M293- (anti-b7) coupled Affi-gel 10 beads; SDS-PAGE non-reducing, autoradiography; bands named by size.

These are yes or no findings as the source states them, for the method shown. In cells and extracts the contact can be indirect. Some entries that bind do so weakly or less than the wild type.

On to “integrin b1 subunit (from UniProt P09055 21-798)”, for which the binding entry in assay [1] was “binds”.

B1: integrin b7 subunit (protein, UniProt P26011 20-806)
chain: T2 sequence (chain, surface radioiodinated (lactoperoxidase method))
modifications: surface radioiodinated (lactoperoxidase method)
Consider B1, for which the results for the binding entry in assay [2] and in assay [3] were “no binding” and “binds”, respectively.

B2: integrin a4 subunit (uncleaved, a4 150) (protein, UniProt Q00651 41-1039)
chain: T1 sequence (chain, surface radioiodinated (lactoperoxidase method))
modifications: surface radioiodinated (lactoperoxidase method)
Consider B2, for which the binding result is “no binding” in assay [4] and “binds” in assay [5].
